Laboratory results from PubChem BioAssay AID1159614 (National Center for Advancing Translational Sciences (NCATS), 2016).
Screen size: about 45,000 compounds; about 65 (0.1%) were called active. The call rests on the fitted dose curve; in most records, active means well fitted activation curve with a large enough effect; inconclusive means small, poorly fitted or top-dose-only effect; inactive means no such curve, though single readings can be large or run the other way. This is one part of the list.

biological target: Galactocerebrosidase (Homo sapiens) (UniProt P54803); assay: A Novel Cell-Based Assay to Identify Small Molecules for B -Galactocerebrosidase; settings: 145M-Twi-hGALC-G270D cells (Twitcher mouse brain line with human GALC G270D), HMU-beta-Gal fluorescence, 48 h; series mostly up to 57.5 µM; activation: at the top concentration; further: 0% is about no effect; nearly all actives have a fitted effect of over 65% in size
Procedure, shortened: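 Fluorogenic HMU-b-Gal hydrolysis (0.1 mM final, pH 5.2 citrate-phosphate with 1 mg/mL sodium taurocholate; carbonate stop buffer) measures mutant GALC activity after compound treatment of live 145M-Twi Twitcher brain cells stably carrying human GALC-G270D, with wild-type GALC line alongside; activation sought.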

Chain of UniProt P54803 (P54803 whole entry, looked up): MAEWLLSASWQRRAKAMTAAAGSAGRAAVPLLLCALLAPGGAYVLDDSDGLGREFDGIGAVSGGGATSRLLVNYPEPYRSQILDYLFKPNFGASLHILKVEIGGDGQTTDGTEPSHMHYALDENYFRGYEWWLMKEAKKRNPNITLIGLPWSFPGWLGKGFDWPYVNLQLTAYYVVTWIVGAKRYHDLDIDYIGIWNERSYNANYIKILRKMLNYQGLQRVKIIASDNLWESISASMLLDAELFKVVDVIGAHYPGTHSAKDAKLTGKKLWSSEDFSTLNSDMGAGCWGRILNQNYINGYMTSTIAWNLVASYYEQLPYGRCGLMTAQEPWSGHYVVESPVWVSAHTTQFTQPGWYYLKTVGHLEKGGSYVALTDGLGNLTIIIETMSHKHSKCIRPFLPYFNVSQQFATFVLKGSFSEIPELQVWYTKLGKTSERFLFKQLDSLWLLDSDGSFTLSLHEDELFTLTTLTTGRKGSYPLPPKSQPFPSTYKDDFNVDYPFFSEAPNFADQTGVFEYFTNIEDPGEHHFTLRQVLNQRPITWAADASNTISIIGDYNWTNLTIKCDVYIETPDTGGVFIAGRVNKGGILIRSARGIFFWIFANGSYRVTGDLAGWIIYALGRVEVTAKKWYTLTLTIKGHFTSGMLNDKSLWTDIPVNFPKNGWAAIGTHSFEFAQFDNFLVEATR

activation, inactive:
O=C(CN1CCSc2ccccc21)NCc1ccccc1F -4.41%
CCOc1ccccc1C(=O)N(Cc1cc(OC)c(OC)c(OC)c1)C1CCS(=O)(=O)C1 (stereo not given) -14.6%
COc1cc(C)ccc1OCCSc1nc(-c2cccc(C)c2)nc2cc(=O)[nH]n12 -13.2%
COc1cccc(C(=O)CC2(O)C(=O)Nc3ccc(Cl)cc32)c1 (stereo not given) 1.61%
Cc1nc(CC(=O)Nc2cc(Cl)ccc2C)cs1 0.264%
CCCOc1ccc(CN(C(=O)c2cc(=O)c3ccc(C)cc3o2)C2CCS(=O)(=O)C2)cc1 (stereo not given) -6.51%
COc1ccc(N2CCN(S(=O)(=O)CCNC(=O)C3CC(=O)N(c4ccccc4)C3)CC2)cc1 (stereo not given) -18.4%
Cc1ccc(-c2cc(NC(=O)COc3ccc(Cl)c(C)c3)on2)cc1 -15.3%
CCN1CCN(C(=O)Cn2ncc3c4ccccc4n(Cc4ccccc4)c3c2=O)CC1 -1.92%
Cc1cc(C)c(NC(=O)CN2C(=O)c3cccnc3Oc3ccc(C)cc32)c(C)c1 -5.39%
Cc1ccc(/C=C/C(=O)Nc2ccc(S(N)(=O)=O)cc2)o1 -16.6%
COc1cccc(NC(=O)Cn2c(=O)n(CC(=O)NCc3ccc(C)cc3)c(=O)c3sccc32)c1 -14.8%
Nc1nnc(SCC(=O)Nc2ccccc2)s1 -17.9%
Cc1ccc(C(c2ccccc2)c2c(C)[nH]c3ccccc23)s1 (stereo not given) -22.2%
Cc1ccc2nc(-c3c[nH]c4ccccc34)c(Nc3ccccc3C)n2c1 -8.1%
O=C(CCS(=O)(=O)c1ccc(Br)cc1)Nc1ccc(Cl)c(C(F)(F)F)c1 2.27%
CCOC(=O)c1cccc(NC(=O)c2cn(-c3cccc(OC)c3)c(=O)c3ccccc23)c1 -10.5%
COc1ccccc1CCNC(=O)C(=O)NCC(c1cccs1)S(=O)(=O)c1ccccc1 (stereo not given) -6.03%
Cc1cc(C)c(Cn2c3ccccc3c3cnn(CC(=O)NCc4ccccn4)c(=O)c32)c(C)c1 -14.1%
Cc1nnc(SCC2=C(C(=O)O)N3C(=O)[C@@H](NC(=O)Cn4cnnn4)[C@H]3SC2)s1 -15.2%
COc1cc(NC(=O)N(Cc2ccco2)C2CCN(C(C)=O)CC2)cc(OC)c1OC -10.5%
Cc1cccc(-c2nc3nc(C)cc(NCc4ccccc4Cl)n3n2)c1 -25%
COc1ccc(-c2cc(C(F)(F)F)nc(-n3nc(C(F)(F)F)cc3C)n2)cc1 -12.3%
CC(C)OCCCNC(=O)C(=O)Nc1ccc2nc3n(c(=O)c2c1)CCCCC3 -11.9%
Fc1cc(F)c2ncc3c(-c4ccccc4)nn(-c4cccc(Cl)c4)c3c2c1 5.3%
Cc1ccc(Sc2ccc(N3CCC(C(=O)Nc4ccc(C)c(F)c4)CC3)nn2)cc1 -1.21%
Cc1ccccc1NC(=O)C1CCN(C(=O)c2cnn(-c3ccccc3)c2-n2cccc2)CC1 -3.24%
Cc1cccc(Cn2c(=O)n(Cc3ccccc3)c(=O)c3oc4ccccc4c32)c1 -15.4%
Cc1ccc(-n2c(SCC(=O)NCc3ccccc3)nc3n[nH]c(C)c3c2=N)cc1Cl -13.6%
O=C(NCC(c1cccs1)S(=O)(=O)c1cccs1)c1ccc(Cl)cc1 (stereo not given) -8.25%
CC1CCN(c2oc(-c3ccc(COc4ccccc4)o3)nc2C#N)CC1 -9.6%
CCc1ccc(-n2c(N3CCN(c4cccc(Cl)c4)CC3)nc3ccccc3c2=O)cc1 -6.46%
CCOc1ccc(NC(=O)Cn2c(=O)n(Cc3nc(-c4ccccc4)no3)c(=O)c3cc4c(cc32)OCO4)cc1 0.0118%
CC(=O)c1ccc(NC(=O)c2nc(-c3ccccc3)n(-c3ccc(Cl)cc3)n2)cc1 -14.6%
CC(C)c1cnc2c(c1SCc1cccc(F)c1)c(=O)n(C)c(=O)n2C -13.7%
CC(=O)N1CCc2cc(Br)cc(S(=O)(=O)N3CCC(C)CC3)c21 1.79%
Cc1ccc(-c2nc3nc(C)cc(C)n3c2Nc2ccc3c(c2)OCCO3)cc1 -25.7%
Cc1ccc(Cn2ccn(CC(=O)Nc3c(C)cc(C)cc3C)c(=O)c2=O)cc1 -1.59%
O=c1[nH]c(=O)n([C@H]2C[C@H](O)[C@@H](CO)O2)cc1C(F)(F)F -16.7%
CCOC(=O)c1cc2c(=O)n3ccccc3nc2n(CCOC)c1=NC(=O)C(C)(C)Oc1ccc(Cl)cc1 -8.33%
Cc1nc2nc(NC(=O)C(C)(C)C)[nH]n2c(=O)c1Cc1ccccc1 6.99%
COc1ccc(NS(=O)(=O)c2cc3c(cc2C)NC(=O)CO3)c(OC)c1 -15.5%
O=C(CSC1=Nc2ccccc2C2=NC(Cc3ccccc3)C(=O)N12)Nc1ccccc1C(F)(F)F (stereo not given) -13.9%
COc1cc(NC(=O)C2CCN(S(=O)(=O)c3ccc4c(c3)oc(=O)n4C)CC2)cc(OC)c1 -5.33%
COc1ccc(NC(=O)Cn2c(=O)oc3cc(S(=O)(=O)NCc4ccccc4)ccc32)c(OC)c1 -10.4%
Cc1noc(-c2ccc(N3CCC(C)CC3)c([N+](=O)[O-])c2)n1 -34.5%
CCCCN(C)CCCNC(=O)Cn1ncc2c3ccccc3n(Cc3ccccc3F)c2c1=O -10.8%
CCOc1ccc(CN2C(=O)c3ccccc3Sc3ccc(C(=O)NC)cc32)cc1 -17.3%
CC(C)NC(=O)Cn1c(=O)nc(-c2ccccc2F)c2cc(Cl)ccc21 -7.06%
COC(=O)c1ccc2c(c1)N(CC(=O)Nc1cccc(Cl)c1C)C(=O)c1ccccc1S2 -15%
Cc1cn2c(=O)cc(COc3ccccc3NC(=O)c3ccc(C(C)(C)C)cc3)nc2s1 -11.1%
Cc1cccc(CNC(=O)c2oc3c(c2C)-c2nn(Cc4cccc(Cl)c4)cc2CC3)c1 -9.33%
COCCNC(=O)c1cccc(Nc2nc3ccccc3n3nnnc23)c1 -5.76%
CSc1ccc(CCNC(=O)c2ccc(CS(=O)(=O)c3ccc(Br)cc3)o2)cc1 -3.28%
CCc1cccc(NC(=O)CCc2nc3cccnc3n2-c2ccccc2)c1 -15.5%
CCOc1cc(CNC(=O)c2ccc3c(c2)N(C)C(=O)C2CCCCN32)cc(OCC)c1OCC (stereo not given) -15.2%
Cc1ccc(-n2nc(C)c3c(C(=O)NCc4ccc(F)cc4)cc(C)nc32)cc1 -15.3%
Cc1cccc(N2CC(C)Cn3c2nc2c3c(=O)n(CC(=O)O)c(=O)n2C)c1 (stereo not given) -11.6%
COc1ccc(NC(=O)CCc2c(C)nc3c(c2C)c(=O)n(C)c(=O)n3C)cc1OC 3.59%
O=C1N(Cc2cccc(C(F)(F)F)c2)c2ccccc2S(=O)(=O)N1c1cccc(Cl)c1 -10%
